Our source for the inhibition values is PubChem BioAssay AID485344 (National Center for Advancing Translational Sciences (NCATS), 2010).

One may read the inhibition as the relative decrease from the control value, in per cent.

SMILES strings stand for the structures. Among all 340,000 compounds or so, about 6,900 (2%) were called active. Cut-off read from the data, not from the text of the source: active = inhibition above about 30%; inactive = below that, where a call was filed. The list shows a part of the results, in another mix than the full data. The source gives no active or inactive call for entries shown without one.

For this test, the target named is D(2) dopamine receptor (Homo sapiens) (UniProt P14416). As to the kind of experiment: HTS Assay for Allosteric Antagonists of the Human D2 Dopamine Receptor: Primary Screen for Antagonists. Note: 0% is about no effect. The note with it: HEK293 TREx D2 cells, calcium flux, dopamine EC80; at 10 µM; stronger effect = higher value. In outline: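 Measurement of antagonist activity uses fluorescent calcium dye in inducible HEK293 T-REx D2 cells: 10 s baseline, compound addition with 180 s read, EC80 dopamine addition with a further 180 s read.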
UniProt P14416, sequence (P14416 whole entry, looked up): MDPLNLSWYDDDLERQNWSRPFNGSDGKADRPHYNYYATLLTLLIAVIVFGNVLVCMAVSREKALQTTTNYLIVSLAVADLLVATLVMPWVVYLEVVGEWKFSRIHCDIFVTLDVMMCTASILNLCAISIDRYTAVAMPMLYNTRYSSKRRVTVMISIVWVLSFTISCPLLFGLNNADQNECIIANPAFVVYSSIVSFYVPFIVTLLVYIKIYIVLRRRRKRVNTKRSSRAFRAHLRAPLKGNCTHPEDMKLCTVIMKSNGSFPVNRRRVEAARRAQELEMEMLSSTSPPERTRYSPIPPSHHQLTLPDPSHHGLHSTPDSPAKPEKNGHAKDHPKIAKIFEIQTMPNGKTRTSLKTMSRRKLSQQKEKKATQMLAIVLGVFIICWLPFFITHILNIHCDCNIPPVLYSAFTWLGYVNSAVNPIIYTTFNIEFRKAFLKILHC
Take `CCCC(=O)Nc1ccc2oc(-c3ccc(O)c(Br)c3)nc2c1`: the inhibition was 9.97%.
Next, `O=C(C1CC1)N1CCc2cc(Br)cc(S(=O)(=O)NCCN3CCOCC3)c21`: active: 39.9%.
Next, `O=C(c1ccc2c(c1)N(Cc1ccc(Cl)cc1)C(=O)c1ccccc1S2(=O)=O)N1CCOCC1`: -6.16%.
Next, `CCCCC(CC)CNC(=O)CCCCCn1c(=O)[nH]c2ccsc2c1=O` (configuration not stated): -2.59%; `CCc1ccc(-n2c(=O)c3ccccc3n(Cc3ccccc3C#N)c2=O)cc1`: 5.47%; `CC(C)c1ccc(NC(=O)c2ccc(=O)n(Cc3ccccc3)c2)cc1`: 5.07%.
`COc1cccc(C2C(C(N)=O)=C(C)Nc3ncnn32)c1` (configuration not stated): the inhibition was -7.78%.
`O=C(CSc1nc2c(oc3ccccc32)c(=O)n1-c1ccccc1)Nc1ccc(F)c(Cl)c1`: the inhibition is -5.24%.
On to `COc1ccc(OC)c(NC(=O)C2=C(C)C(=O)OC23CCN(C(C)C)CC3)c1`, for which the inhibition is -3.43%.
Next, `Fc1ccc(N2CCN(c3ncnc4onc(-c5ccc(Cl)cc5)c34)CC2)cc1`: -0.616%.
Next, `COc1cc(Nc2nc(-c3ccc(OC)c(OC)c3)nc3ccccc23)cc(OC)c1`: 4.46%; `Cc1cccn2c(=O)c(C(=O)N3CCN(c4ccccc4)CC3)cnc12`: -0.48%.
As to `COc1ccccc1Nc1c2c(nc3ccc(NC(=O)c4ccc(N(C)C)cc4)cc13)CCCC2`, the inhibition stood at 18.9%.
Next, `CSc1nc(N2CCN(Cc3ccc4c(c3)OCO4)CC2)c2ccccc2n1`: active: 37.9%; `Cc1ccc(-n2c(=O)c3oc4ccccc4c3n(Cc3cccc(F)c3)c2=O)cc1C`: -9.33%; `Cc1ccc(C(=O)c2c(N)c(C(=O)Nc3cccc(C(F)(F)F)c3)c3ccccn23)cc1`: -2.05%.
Next, `Cc1nc2nc(NCc3ccc(Br)cc3)[nH]n2c(=O)c1Cc1ccccc1`: 0.0908%; `CCCCOc1ccc(C(=O)Nc2cccc(-c3nc4ccccc4o3)c2C)cc1`: -1.9%.
Next, `CN(C)c1ccc(CNC(=O)c2ccc3nc(Cc4ccccc4)oc3c2)cc1`: 16.2%; `O=C(O)CCn1ccc2cc(S(=O)(=O)N3CCCCCC3)ccc21`: 0.791%.
`CCN(CC(=O)Nc1ccc2c(c1)OCCO2)C(=O)COc1cc(C)ccc1Cl`: the inhibition was active: 33.2%.
Next, `Cc1cc(C)c(NC(=O)C(=O)NCCc2csc(-c3ccc(F)cc3)n2)c(C)c1`: -1.99%; `Cc1cccc(NC(=O)Cn2c(=O)n(Cc3ccccc3)c(=O)c3oc4ccccc4c32)c1C`: -5.74%.
Next, `CC(C)c1ccc(NC(=O)c2ccc(CN3CC(=O)N4CCCCC4C3=O)cc2)cc1` (configuration not stated): 2.19%; `COc1ccccc1C(=O)Nc1ccc(C(=O)OCc2cc(=O)n3c4c(sc3n2)CCCC4)cc1`: 14.5%; `CCOc1ccc(C2C(C(N)=O)=C(C)Nc3nc(SCc4ccccc4F)nn32)cc1` (configuration not stated): 5.3%.
Next, `Cc1ccc(CNC(=O)c2c(Nc3c(C)cccc3C)sc(C(=O)c3ccccc3)c2N)cc1`: 17.6%.
As to `COc1ccccc1NC(=O)c1cnn(-c2ccccc2)c1-n1cccc1`, the inhibition came out at 9.06%.
On to `CC(C)c1cccc(OCCN2CCCC2)c1`, for which the inhibition was active: 70.5%.
Turning to `Cc1ccc(CNC(=O)c2c(Nc3ccccc3C)sc(C(=O)c3ccc(F)cc3)c2N)cc1`, the inhibition is -21%.
Next, `COc1ccc(CC(=O)NCC(c2cccs2)S(=O)(=O)c2ccc(F)cc2)cc1` (configuration not stated): 4.43%; `COc1cccc(-c2nn(C)c3sc(C(=O)NCc4ccc(OC)cc4OC)cc23)c1`: 0.816%.
As for `Cc1ccc(C(=O)N(Cc2ccco2)c2ccccn2)cc1`, the inhibition was -5.15%.
Next, `O=C(CN1CCN(Cc2ccccc2F)C1=O)NCc1ccccc1`: -9.8%; `COc1cc(NC(=O)c2nn(C)c3c2COc2ccccc2-3)cc(OC)c1OC`: -14.3%; `CCOc1ccccc1NC(=O)C1=C(C)Nc2ncnn2C1c1ccco1` (configuration not stated): -22.7%.
Next, `CCc1cnc2c(c1SC(C(C)=O)C(=O)N(C)C)c(=O)n(C)c(=O)n2C` (configuration not stated): 12.5%; `COc1ccc(CCNC(=O)c2ccc(Cn3c(SCc4ccccc4)nc4cccnc43)cc2)cc1`: 12.5%.
On to `O=C(CCn1c(=O)c2ccccc2n(CC(=O)Nc2ccc(F)cc2)c1=O)NCCc1ccccc1`, for which the inhibition was -5.58%.
Next, `COCCCNC(=O)c1ccc(Cn2c(=O)c3ccccc3n(Cc3ccc(Cl)cc3)c2=O)cc1`: -8.86%; `Cc1cccc(-n2c(SCC(=O)Nc3ccc(C)c(C)c3)nc3n[nH]c(C)c3c2=N)c1`: 15.6%.
Next, `CCOC(=O)c1ccccc1NC(=O)c1c(C)oc2ncnc(N3CCOCC3)c12`: -3.68%; `COc1cccc(-n2c(=O)c3c(C)c(C)sc3n(Cc3ccccc3C#N)c2=O)c1`: 2.03%.
Next, `CCOc1ccc(CNC(=O)c2cc3ccccn3n2)cc1`: 6.01%; `COc1ccc(-c2nc3sc(CCNC(=O)C(=O)Nc4ccccc4C#N)c(C)n3n2)cc1`: 8.68%.
Take `CCN(CC)CCCNc1oc(-c2ccc(OC)cc2)nc1C#N`: the inhibition was -0.55%.
Next, `CC(C)n1c(=O)c2oc3ccccc3c2n(CC(=O)Nc2ccccc2Cl)c1=O`: 18.8%; `CSCCC(NC(=O)c1ccco1)C(=O)N1CCCC(C(F)(F)F)C1` (configuration not stated): active: 31.5%.
Next, `Cc1c(Cl)cccc1NC(=O)Cn1c(=O)n(Cc2ccco2)c(=O)c2oc3ccccc3c21`: 7.24%; `COC(=O)c1c(Oc2ccc(Br)cc2)nnc(-c2ccccc2)c1-c1ccccc1`: -7.15%; `CCc1nc2nc(C)cc(Nc3ccc(F)c(Cl)c3)n2n1`: 24.7%.
Take `COc1ccccc1N1CCN(CCOc2c(OC)cccc2OC)CC1`: the inhibition is active: 97.5%.
For `O=C1CC(c2ccc(Br)cc2)c2c(ccc3ccccc23)N1` (configuration not stated), the inhibition worked out at 1.8%.
Consider `COc1cc(OC)c2c(C)c(CC(=O)N3CCCCC3)c(=O)oc2c1`, for which the inhibition turned out to be 9.86%.
As for `Cc1cccc(C(=O)Nc2ccccc2OCc2cc(=O)n3cc(C)ccc3n2)c1`, the inhibition amounted to 13.9%.
Next, `CC(=O)N1CCCc2cc(S(=O)(=O)N3CCCC(C(=O)Nc4ccc(C)c(F)c4)C3)ccc21` (configuration not stated): 4.42%; `O=C(COc1ccc(Br)cc1)Nc1ccc(C(=O)OC2CCCCC2)cc1`: -9.33%.
As for `CCc1ccc(S(=O)(=O)c2cn(Cc3ccc(OC)cc3)c3cc(OC)c(OC)cc3c2=O)cc1`, the inhibition was determined as 6.93%.
Next, `CCOc1ccc(NC(=O)Cn2c(=O)n(-c3ccccc3)c(=O)c3c4c(sc32)CCCC4)cc1`: -15.2%; `CCc1nnc2c3ccccc3nc(N3CCN(c4cc(Cl)ccc4C)CC3)n12`: 2.67%.
Next, `COc1ccc(NC(=O)CCc2c(C)nc3cc(-c4cccc(F)c4)nn3c2C)cc1Cl`: -2.94%; `CCOC(=O)c1c(C)[nH]c(C)c1S(=O)(=O)N(C)CC(=O)Nc1ccc(C)c(F)c1`: -0.976%.
With `CC(=O)Nc1ccc2nc(SCCOc3ccccc3Cl)sc2c1`, the inhibition was -1.41%.
Next, `CCCCN(c1ccccc1)c1ncnc2c1cnn2-c1cccc(C)c1`: -2.89%; `COC(=O)c1cc2sccc2n1Cc1nc(-c2ccc(C)cc2)oc1C`: -8.72%.
Next, `Cc1cc(C)c(NC(=O)C2CCCN(C(=O)c3cnn(-c4ccccc4)c3-n3cccc3)C2)c(C)c1` (configuration not stated): -7.38%; `CCc1ccccc1NC(=O)c1ccc2c(c1)c(C)c(C)n2Cc1ccccc1`: 10.6%; `CN(C(=O)CSc1nc2ccccc2n1CC(=O)N(C)C1CCCCC1)c1ccc(F)cc1`: -14.3%.
As to `CCOc1ccc(CNC(=O)c2ccc3c(c2)N(Cc2ccccc2)CCS3)cc1`, the inhibition was -13.6%.
Next, `COc1ccccc1N1CCN(C(=O)COc2ccccc2C#N)CC1`: -11.6%; `Cn1c(=O)[nH]c(=O)c2c1ncn2CCN1CCOCC1`: active: 38.1%.
Next, `CCOc1ccc(S(=O)(=O)N2CCC(n3c(C)nc4cccnc43)CC2)cc1`: -3.2%.
Turning to `O=C(Cn1ncc2c(Cl)cccc21)NCc1cccc(F)c1`, the inhibition was 9.5%.
Next, `COC(=O)c1ccc2c(c1)N(Cc1cc(C)ccc1C)C(=O)c1ccccc1S2(=O)=O`: 9.11%; `CC(=O)N1CCc2c(sc(NC(=O)CSc3ccc(F)cc3)c2-c2nc3ccccc3s2)C1`: 15%; `Cc1ccc(Cn2c(CO)cnc2SCC(=O)Nc2cccc(F)c2)cc1`: -11.2%.
Next, `COc1ccc(-c2noc(-c3ccc(NCCc4ccccc4)c([N+](=O)[O-])c3)n2)cc1`: 24.2%; `O=C(Cn1cc(S(=O)(=O)Cc2ccccc2Cl)c2ccccc21)Nc1ccc(F)cc1F`: -4.22%; `Cc1oc2c(C)c3oc(=O)c(CCC(=O)N4CCCCC4)c(C)c3cc2c1C`: 4.92%.
Next, `CC(C)(C)c1ccc(C(=O)Nc2nnc3n2CCS3)cc1`: -9.43%; `Cc1cc2oc(C(=O)Nc3ccc(S(=O)(=O)N(C)c4ccccc4)cc3)cc(=O)c2cc1C`: 3.14%; `CCOC(=O)Cn1c(=O)oc2cc(S(=O)(=O)Nc3ccccc3F)ccc21`: 26.5%.
Consider `COc1cc(-c2nnc(SCCOc3ccccc3)o2)cc(OC)c1OC`, for which the inhibition came out at 21%.
Next, `CCOC(=O)c1c(SCC(=O)Nc2cccc(C)c2C)nc(=O)[nH]c1C`: 22.5%; `OC(COCc1ccccc1)CN1CCc2ccccc2C1` (configuration not stated): active: 46.9%; `CCn1c(C)c(C)c2cc(C(=O)NCCc3cc(OC)ccc3OC)ccc21`: 5.49%.
`Cc1oc2ncn(CC(C)C)c(=O)c2c1C(=O)NCCCN(C)Cc1ccccc1`: the inhibition is -13.2%.
Next, `O=C(Nc1cccc(C(F)(F)F)c1)C1CCCN(S(=O)(=O)c2cccc3nonc23)C1` (configuration not stated): -0.439%; `Cc1ccccc1Cn1cc(S(=O)(=O)c2ccc(F)cc2)c(=O)c2cc3c(cc21)OCO3`: -5.55%; `O=[N+]([O-])c1cc(-c2nc3nc4ccccc4nc3n2CCc2ccccc2)cc([N+](=O)[O-])c1`: active: 67.5%.
Consider `Cc1ccc(NC(=O)Cn2c(=O)n(CCCCC(=O)NCCc3ccccc3)c(=O)c3ccccc32)cc1`, for which the inhibition was -0.884%.
Next, `Cc1cc(=O)n(Cc2ccc(Br)cc2F)c2c1c(C)nn2-c1ccccc1`: 2.54%.
For `Cc1cc(Cl)ccc1OCCSc1nnc(-c2cccs2)o1`, the inhibition is -22.8%.
For `O=C(CCNS(=O)(=O)c1ccc2c(c1)CCCC(=O)N2)NCc1ccc(Cl)cc1`, the inhibition is -1.38%.
`COc1ccc(C)cc1NC(=O)CN(C)S(=O)(=O)c1ccc2[nH]c(=O)oc2c1`: the inhibition was 8.95%.
Next, `CCc1nccn1S(=O)(=O)c1cc(Br)ccc1Br`: -27.6%; `COC(=O)c1sccc1S(=O)(=O)N(CC(=O)Nc1cc(F)ccc1F)c1ccc(C)c(C)c1`: -0.96%.
